Reference: the supplement of paper PMC8728848
The list shows a part of the results.

Assays:
Test in all cases: glycan array binding signal (z-score within array); higher = stronger binding
Settings in all cases: glycan notation: IUPAC condensed, linker removed
[1] = biological target: GlcNAc(b1-3)Gal(b1-4)GlcNAc(b1-3)[GlcNAc(b1-3)Gal(b1-4)GlcNAc(b1-3)]GalNAc
In short: (§1)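 Glycan array data were curated from 3228 arrays in the Consortium for Functional Glycomics database and kept only where the protein sequence was available. Glycan names were converted to IUPAC-condensed notation, and columns mapping to the same glycan were averaged. The binding signal is a within-array Z-score, averaged across arrays of the same protein sequence at different concentrations or buffers and across linkers. Negative Z-scores can be read as non-binding.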

[2] = biological target: GlcNAc(b1-3)Gal(b1-4)GlcNAc(b1-6)[Gal(b1-3)]GalNAc
In short: as §1

[3] = biological target: GlcNAc(b1-3)Gal(b1-4)GlcNAc(b1-6)[GlcNAc(b1-3)Gal(b1-3)]GalNAc
In short: as §1

[4] = biological target: GlcNAc(b1-3)Gal(b1-4)GlcNAc(b1-6)[GlcNAc(b1-3)]Gal(b1-4)GlcNAc
In short: as §1

[5] = biological target: GlcNAc(b1-3)GalNAc
In short: as §1

[6] = biological target: GlcNAc(b1-3)Man
In short: as §1

[7] = biological target: GlcNAc(b1-3)[GlcNAc(b1-4)][GlcNAc(b1-6)]GlcNAc
In short: as §1

[8] = biological target: GlcNAc(b1-3)[GlcNAc(b1-6)]Gal(b1-4)GlcNAc
In short: as §1

[9] = biological target: GlcNAc(b1-3)[GlcNAc(b1-6)]GalNAc
In short: as §1

[10] = biological target: GlcNAc(b1-4)Gal(b1-4)GlcNAc
In short: as §1

[11] = biological target: GlcNAc(b1-4)GlcNAc
In short: as §1

[12] = biological target: GlcNAc(b1-4)GlcNAc(b1-4)GlcNAc
In short: as §1

[13] = biological target: GlcNAc(b1-4)GlcNAc(b1-4)GlcNAc(b1-4)GlcNAc(b1-4)GlcNAc
In short: as §1

[14] = biological target: GlcNAc(b1-4)GlcNAc(b1-4)GlcNAc(b1-4)GlcNAc(b1-4)GlcNAc(b1-4)GlcNAc
In short: as §1

[15] = biological target: GlcNAc(b1-4)[GlcNAc(b1-6)]GalNAc
In short: as §1

[16] = biological target: GlcNAc(b1-6)Gal(b1-4)GlcNAc
In short: as §1

[17] = biological target: GlcNAc(b1-6)GalNAc
In short: as §1

[18] = biological target: GlcNAc6S(b1-3)Gal(b1-4)GlcNAc
In short: as §1

[19] = biological target: Kdn(a2-3)Gal(b1-3)GalNAc
In short: as §1

B1: Als1 (Candida albicans), P46590 (protein)
chain: KTITGVFDSFNSLTWSNAANYAFKGPGYPTWNAVLGWSLDGTSANPGDTFTLNMPCVFKYTTSQTSVDLTADGVKYATCQFYSGEEFTTFSTLTCTVNDALKSSIKAFGTVTLPIAFNVGGTGSSTDLEDSKCFTAGTNTVTFNDGDKDISIDVEFEKSTVDPSGYLYASRVMPSLNKVTTLFVAPQCENGYTSGTMGFSSSNGDVAIDCSNIHIGITKGLNDWNYPVSSESFSYTKTCTSNGIQIKYQNVPAGYRPFIDAYISATDVNQYTLAYTNDYTCAGSRLQSKPFTLRWTGYKNSDAGSNGIVIVATTRTVTDSTTAVTTLPFNPSVDKTKTIEILQPIPTTTITTSYVGVTTSYLTKTAPIGETATVIVDVPYHTTTTVTSEWTGTITTTTTRTNPTDSIDTVVVQVP
- glycan array binding signal (z-score) [1]: -0.654
- glycan array binding signal (z-score) [2]: 0.265
- glycan array binding signal (z-score) [3]: -0.585
- glycan array binding signal (z-score) [4]: 1.39
- glycan array binding signal (z-score) [5]: -0.57
- glycan array binding signal (z-score) [6]: -0.282
- glycan array binding signal (z-score) [7]: -0.335
- glycan array binding signal (z-score) [8]: -0.361
- glycan array binding signal (z-score) [9]: -0.201
- glycan array binding signal (z-score) [10]: -0.011
- glycan array binding signal (z-score) [11]: 1.81
- glycan array binding signal (z-score) [12]: -0.547
- glycan array binding signal (z-score) [13]: -0.158
- glycan array binding signal (z-score) [14]: -0.318
- glycan array binding signal (z-score) [15]: -1.29
- glycan array binding signal (z-score) [16]: 0.027
- glycan array binding signal (z-score) [17]: -0.026
- glycan array binding signal (z-score) [18]: 1.57
- glycan array binding signal (z-score) [19]: -0.044
